Drawing on article PMC7819943, “Rice protein-binding microarrays: a tool to detect cis-acting elements near promoter regions in rice”, this text covers binding signal for 42 sequences.

The list shows a part of the results.

For the assay, the target named is T1, OsWOX13 (Oryza sativa, UniProt Q5QMM3 1-267).
T1 sequence: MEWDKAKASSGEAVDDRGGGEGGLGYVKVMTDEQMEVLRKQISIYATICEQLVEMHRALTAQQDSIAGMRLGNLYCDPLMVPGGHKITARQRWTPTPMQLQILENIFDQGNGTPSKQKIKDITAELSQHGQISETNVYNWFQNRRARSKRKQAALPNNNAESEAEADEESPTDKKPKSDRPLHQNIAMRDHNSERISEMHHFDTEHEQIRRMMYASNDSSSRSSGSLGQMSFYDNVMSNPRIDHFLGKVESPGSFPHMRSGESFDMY
The experiment in a line: protein-binding microarray (RPBM); PBS, 2% BSA, 51.3 ng/ul salmon testes DNA, 50 uM zinc acetate, 200 nM TF, 25 C, 1 h; high values mean tight binding. The conditions noted are these: protein: recombinant; tags: N-terminal polyhistidine and DsRed monomer fusion (pET32a); label: CyDye5-dUTP incorporated in the synthesized complementary strand; 3' TTTTT single-stranded linker to array surface; dsDNA, one strand shown. Put shortly: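 An Axon 4000B scanner gave the binding signal as per-feature fluorescence intensity in arbitrary units. This followed washing of a custom Agilent array that had been incubated for 1 h at 25 °C with 200 nM protein in PBS, 2% BSA, salmon testes DNA and 50 µM zinc acetate. The proteins were transcription factors fused at the N-terminus to polyhistidine and DsRed, expressed in E. coli BL21-CodonPlus and purified on Ni–NTA.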
As for “ACCTTCACTTGATTGCTGGTGGTAGTAGTAGTAGTAGTACCGGAGTCACCTAGTGCAG”, the binding signal is 21700 fluorescence intensity (a.u.). On to “CGGCTGGACAGGATAATCTAGATTATCCTCCTTTCCAGTTCGGAGTCACCTAGTGCAG”, for which the binding signal was 4220 fluorescence intensity (a.u.).

In the case of “ATTTAATTAATATGTTAATGAGCTAATCCGTTTTCGGGACCGGAGTCACCTAGTGCAG”, the binding signal is 52300 fluorescence intensity (a.u.).

In the case of “ATTAATTTGCCCACATTTTAGGTTTGGATGGCTGATTTGTCGGAGTCACCTAGTGCAG”, the binding signal is 16000 fluorescence intensity (a.u.).

Consider “TTGTAATAATTTTATTTTGAGCTATAGTGCTAACCAGGACCGGAGTCACCTAGTGCAG”, for which the binding signal is 5090 fluorescence intensity (a.u.). Turning to “CTAATTAATCATACTCTAGTAATAATAATTCTTATCGATTCGGAGTCACCTAGTGCAG”, the binding signal is 3750 fluorescence intensity (a.u.).

For “AAAACGTTGTCAATTGTTAATGTATTTGGGATGCTGTCATCGGAGTCACCTAGTGCAG”, the binding signal was 3450 fluorescence intensity (a.u.).

In the case of “AGTCACTTGATTTGCTTTATCATAGAGCTTGATGAGATCCCGGAGTCACCTAGTGCAG”, the binding signal is 24900 fluorescence intensity (a.u.).

“CTAATGTTTTCAGATTGGGTAGATTGGAGTAGTTAACCTTCGGAGTCACCTAGTGCAG”: the binding signal is 7000 fluorescence intensity (a.u.). For the sequence “GACAAATTTACAGTAGTTTAACTTTAAGCAAAGTCAAAACCGGAGTCACCTAGTGCAG”, the binding signal is 6260 fluorescence intensity (a.u.). As for “CTTATGATAGACATATTTCAATCTAACCACCTATCCTCTTCGGAGTCACCTAGTGCAG”, the binding signal was 36100 fluorescence intensity (a.u.). Turning to “ACTAATTAAATTTGGAAAGAAACCACATGAAATGAAAGACCGGAGTCACCTAGTGCAG”, the binding signal was 29800 fluorescence intensity (a.u.).

For “ACCCCAATCATTAACCCCGTATGTTAACGCACGCCATAAACGGAGTCACCTAGTGCAG”, the binding signal is 11600 fluorescence intensity (a.u.). For the sequence “GTGGCTGATTTAGAGGGAGCGATCAATTCAGTGGGTCTTACGGAGTCACCTAGTGCAG”, the binding signal was 3790 fluorescence intensity (a.u.). Consider “TTTCATTCCCTTTCCAATTAATTCCCAATGATAATCCCAACGGAGTCACCTAGTGCAG”, for which the binding signal is 4860 fluorescence intensity (a.u.). The value for “AGCGAAATGGATGATTAATCAATTGGACGTTGTCGAGAATCGGAGTCACCTAGTGCAG” was 14300 fluorescence intensity (a.u.); that for “AAACAATAAACCCATTCAATCACAAGGAGAAAATAACACTCGGAGTCACCTAGTGCAG” was 3380 fluorescence intensity (a.u.); that for “TATATATATATATATATATATATATATATATATAAGCGTCCGGAGTCACCTAGTGCAG” was 21100 fluorescence intensity (a.u.). The same measure for “TCGGATCTAATTGCCACGTAAACGCCACTTCAATGACATGCGGAGTCACCTAGTGCAG”: 13100 fluorescence intensity (a.u.). As for “AGGTTAATTAGCTAGGTGTGTAGTACACCCGGCGACACATCGGAGTCACCTAGTGCAG”, the binding signal was 21200 fluorescence intensity (a.u.). The same measure for “ACCTTTGACAGCTCGAGCTCATGGCGGCTGCAGCCCTGCACGGAGTCACCTAGTGCAG”: 3540 fluorescence intensity (a.u.); for “GCGAACTGCCTGATAATTAAACTATCCCGATCGACATAAACGGAGTCACCTAGTGCAG”: 3640 fluorescence intensity (a.u.); for “TCATAAATGATAAATCACCTGATTCAATATACAAATAGGACGGAGTCACCTAGTGCAG”: 30100 fluorescence intensity (a.u.). The same measure for “TATTATATCACCACTAATTAATATATCTCACTTACAAACACGGAGTCACCTAGTGCAG”: 7950 fluorescence intensity (a.u.). The value for “AATTAGACATGACAAAACTGAAATTAAGGCGCTCTTGACTCGGAGTCACCTAGTGCAG” was 20600 fluorescence intensity (a.u.); that for “ACTAGTGATGGTCGGTGATAGATGCTCAACCCAAATTACACGGAGTCACCTAGTGCAG” was 6330 fluorescence intensity (a.u.). Take “CCCTTCATTTCCTTAATTAATTTCCATTCGATCAACAGCTCGGAGTCACCTAGTGCAG”: the binding signal is 18500 fluorescence intensity (a.u.).

Regarding “TCGTCTAATTAGTATTTCTGTTGCACAACACTACTATTTCCGGAGTCACCTAGTGCAG”, the binding signal is 25500 fluorescence intensity (a.u.).

As to “GTGATGATTGTTAGTGGATGATGATGTGGCATCTTGTTAACGGAGTCACCTAGTGCAG”, the binding signal is 23200 fluorescence intensity (a.u.). The value for “TTCCTTTTGCATGATAGGAATCAATCATCAATAGTCAAAACGGAGTCACCTAGTGCAG” was 6710 fluorescence intensity (a.u.).

For the sequence “ACTATTAATGTGAACTGATATGATACATTTTAGAGCTAGCCGGAGTCACCTAGTGCAG”, the binding signal is 6440 fluorescence intensity (a.u.). The value for “CGCATCTTGATTAATTGCTGGCCGGCTGCGTTCTTTTGAACGGAGTCACCTAGTGCAG” was 24000 fluorescence intensity (a.u.); that for “TCTGATTAAATTCAATTGCTTTGCACACAGGGCTCCATAACGGAGTCACCTAGTGCAG” was 25600 fluorescence intensity (a.u.); that for “GTGGCATAATTGGGAAGGGTGGAGTCAACACGAAGCAGATCGGAGTCACCTAGTGCAG” was 11900 fluorescence intensity (a.u.). The value for “TATACTGAATTAATTGCAAGTAGCTTAGAGTCGTCGGTTTCGGAGTCACCTAGTGCAG” was 15400 fluorescence intensity (a.u.); that for “GCTCCTAACCAATCAGCGCACCCATCGTCCCAAAATCCCCCGGAGTCACCTAGTGCAG” was 8480 fluorescence intensity (a.u.); that for “CAGAAATTTTCGCTATTCAAATTTCCTGTCTACCTCCTCTCGGAGTCACCTAGTGCAG” was 3760 fluorescence intensity (a.u.). In the case of “ACTCAATTAGAGTGCATCAAAACGATTTTAGAACAGTTTACGGAGTCACCTAGTGCAG”, the binding signal was 4240 fluorescence intensity (a.u.). Turning to “ACTTCCATACACCGATTGATTGTAATTAAGCTTGTTGTTCCGGAGTCACCTAGTGCAG”, the binding signal is 21900 fluorescence intensity (a.u.). For the sequence “AGATGGGATTGATAGCACAACAATAATTCTTCTGCTCTGCCGGAGTCACCTAGTGCAG”, the binding signal was 25300 fluorescence intensity (a.u.).

Turning to “TGAAATTGGAGATGATGTGACTGAAAAGTTGTGTGTGTATCGGAGTCACCTAGTGCAG”, the binding signal was 20800 fluorescence intensity (a.u.). Turning to “GCTCTTAATTTAATTATGCTCATTTCAGGAATGTTTCAAACGGAGTCACCTAGTGCAG”, the binding signal was 19600 fluorescence intensity (a.u.).
